Where two headings read alike, the source gives them in different places.
System: cellular ATP levels
Details: for ATP (composite Z-score): normalized score vs mock-treated (DMSO) wells
[1] = normalized composite Z-score vs mock-treated (DMSO) wells, Conc 20 μM
[2] = composite Z-score vs DMSO, Conc 20 μM
[3] = composite Z-score vs mock-treated (DMSO) wells, Conc 20 μM
[4] = composite Z-score vs DMSO wells, Conc 20 μM
[5] = 20 μM, composite Z-score vs DMSO

Compound: COc1c(-c2coc3cc4c(cc3c2=O)CC(O)C(C)(C)O4)ccc2c1C=CC(C)(C)O2 (stereo not drawn) [mundulone, reference compound]
- ATP [1]: −4.544

Compound: CC(=O)Oc1cccc2c1C(=O)c1c(OC(C)=O)cc(C(=O)O)cc1C2=O [diacerin]
- ATP (composite Z-score) (Conc 20 μM): 0.672

Compound: COc1cc(C(C)=O)cc(OC)c1O [acetosyringone]
- ATP [2]: 0.040

Compound: C[C@H]1CC[C@]2(NC1)O[C@H]1C[C@H]3[C@@H]4CC[C@H]5C[C@@H](O)CC[C@]5(C)[C@H]4CC[C@]3(C)[C@H]1[C@@H]2C [tomatidine]
- ATP [2]: 0.445

Compound: COc1ccc(-c2coc3c(O)c(OC)ccc3c2=O)cc1 [retusin 7-methyl ether]
- ATP [2]: −0.148

Compound: CC(=O)Oc1ccc(/C=C/c2cc(OC(C)=O)cc(OC(C)=O)c2)cc1 [triacetylresveratrol]
- ATP [1]: −1.727

Compound: COc1cc2c(cc1OC)[C@@H]1C(=O)c3ccc4oc(C(C)C)cc4c3O[C@@H]1CO2 [isorotenone, reference compound]
- ATP [1]: −5.273

Compound: O=C1CC[C@]23/C=C/C(=O)NCCCCNCCCNC(=O)/C=C/c4ccc(c2c4)O[C@@H]3C1 [lunarine]
- ATP [2]: 0.517

Compound: COC(=O)CCC(=O)O[C@H]1CC[C@@]2(C)[C@@H](CC[C@@H]3[C@@H]2C(=O)C(O)[C@]2(C)[C@@H]4[C@H](C[C@@H]32)O[C@]2(CC[C@@H](C)CO2)[C@H]4C)C1 (stereo partly drawn)
- ATP [2]: −0.092

Compound: avermectin B1
- ATP [2]: −0.108

Compound: COc1ccc2c(c1)OCC(Cc1ccc(O)c(OC)c1)C2=O (stereo not drawn) [deoxysappanone b 7,3′-dimethyl ether, reference compound]
- ATP [1]: −1.027

Compound: NCCC(=O)c1ccccc1N [kynuramine]
- ATP [1]: 2.131

Compound: C[C@H](N)[C@H](O)c1cccc(O)c1 [metaraminol]
- ATP [2]: 1.865

Compound: CCCCCC1C(=O)CCC1CC(=O)OC (stereo not drawn) [dihydrojasmonic acid, methyl ester]
- ATP [2]: −0.049

Compound: C[C@]12CC[C@H]3C(=CCc4cc(O)ccc43)[C@@H]1CCC2=O [equilin]
- ATP: −0.045

Compound: CC12CCC(O)CC1CCc1ccccc12 (stereo not drawn)
- ATP (composite Z-score) (Conc 20 μM): −0.736

Compound: COC(=O)[C@@]1(C)CCC[C@]2(C)c3ccc(O)c(C(C)C)c3CCC12 (stereo partly drawn) [totarol-19-carboxylic acid, methyl ester]
- ATP [3]: 2.434

Compound: CNCCc1ccccn1 [betahistine]
- ATP [4]: 1.977

Compound: CC(C)(Sc1cc(C(C)(C)C)c(O)c(C(C)(C)C)c1)Sc1cc(C(C)(C)C)c(O)c(C(C)(C)C)c1 [probucol]
- ATP [4]: −0.915

Compound: Oc1c(Br)cc(Br)c2cccnc12 [broxyquinoline]
- ATP [5]: −1.237

Compound: CC1(C)C(=O)C=C[C@]2(C)[C@H]3CC[C@@]4(C)[C@H](c5ccoc5)OC(=O)[C@H]5O[C@]54[C@]3(C)[C@H](O)C[C@@H]12 [deacetylgedunin]
- ATP [3]: 0.232

Compound: caryophyllene
- ATP (composite Z-score) (Conc 20 μM): 1.810

Compound: Cc1cc(O)cc(C)c1Cl [chloroxylenol]
- ATP [5]: −1.134

Compound: CC1(C)[C@@H](O[C@H]2O[C@H](C(=O)O)[C@@H](O)[C@H](O)[C@H]2O[C@@H]2O[C@H](C(=O)O)[C@@H](O)[C@H](O)[C@H]2O)CC[C@]2(C)[C@H]3C(=O)C=C4[C@@H]5C[C@@](C)(C(=O)O)CC[C@]5(C)CC[C@@]4(C)[C@]3(C)CC[C@@H]12 [glycyrrhizic acid]
- ATP [2]: 1.266

Compound: COc1c(CC(=O)c2cc3c(cc2O)OC(C)(C)C(O)C3)ccc2c1C=CC(C)(C)O2 (stereo not drawn) [dihydromunduletone]
- ATP [1]: −2.030

Compound: Nc1ccccc1C(=O)CC(N)C(=O)O (stereo not drawn) [kynurenine]
- ATP [1]: 0.528

Compound: COC(=O)C[C@H]1C(C)(C)[C@@H](O)[C@@H]2CC3=C4CC(O)O[C@@H](c5ccoc5)[C@]4(C)CCC3[C@@]1(C)C2=O (stereo partly drawn) [3,16-dideoxymexicanolide-3beta-diol]
- ATP [1]: −0.547

Compound: COc1ccc2c(c1)OC/C(=C\c1ccc(OC)c(O)c1)C2=O [sappanone A dimethyl ether]
- ATP (composite Z-score) (Conc 20 μM): −0.310

Compound: O=C(O)c1ccc(S(=O)(=O)N(Cl)Cl)cc1 [halazone]
- ATP [4]: −0.116

Compound: Oc1c(Cl)cc(Cl)cc1Sc1cc(Cl)cc(Cl)c1O [bithionol]
- ATP [4]: −4.693

Compound: CCc1nc(N)nc(N)c1-c1ccc(Cl)cc1 [pyrimethamine]
- ATP [4]: 0.449

Compound: COC1=CC(=O)C(O)=C/C1=C\C=C\c1ccccc1 [obtusaquinone]
- ATP [2]: −8.654

Compound: C=C(C)[C@@H]1CC[C@]2(C(=O)O)CC[C@]3(C)[C@H](CC[C@@H]4[C@@]5(C)CC[C@H](O)C(C)(C)[C@@H]5CC[C@]43C)[C@@H]12 [betulinic acid]
- ATP [2]: −0.271

Compound: CC1(C)C(=O)CC[C@@]2(C)C1C[C@@H](O)[C@@]1(C)C3=CC(=O)O[C@@H](c4ccoc4)[C@]3(C)CCC21 (stereo partly drawn) [dihydro-7-desacetyldeoxygedunin]
- ATP [1]: 1.060

Compound: COc1cccc2c1CCC1CC(=O)CCC21C (stereo not drawn)
- ATP [1]: 2.441

Compound: CSCC[C@H](NC=O)C(=O)N[C@@H](CC(C)C)C(=O)N[C@@H](Cc1ccccc1)C(=O)O [N-formylmethionyl-leucylphenylalanine]
- ATP [4]: 2.059

Compound: 3beta-chloroandrostanone
- ATP [3]: 1.376

Compound: Cc1cc(=O)c2c(O)cc(O)c(C)c2o1 [isoeugenitol]
- ATP [3]: 0.995

Compound: C=C1CC[C@H](O)C/C1=C/C=C1\CCC[C@]2(C)[C@@H]([C@H](C)/C=C/[C@H](C)C(C)C)CC[C@@H]12 [ergocalciferol]
- ATP [5]: −0.913

Compound: NC(=O)N/N=C/c1ccc([N+](=O)[O-])o1 [nitrofurazone]
- ATP [2]: 1.199

Compound: COc1cc(-c2coc3cc(OC)c(OC)c(OC)c3c2=O)cc(OC)c1OC [irigenin trimethyl ether]
- ATP [3]: 0.108

Compound: CC1CC(O)C2OC1CC1C(CC1(C)C)C2C (stereo not drawn) [3,7-epoxycaryophyllan-6-ol]
- ATP [1]: −0.499

Compound: CCCC(=O)Nc1ccc(OCC(O)CNC(C)C)c(C(C)=O)c1 (stereo not drawn) [acebutolol]
- ATP [4]: 0.310

Compound: CCN1C[C@]2(COC)[C@H](O)C[C@H](OC)[C@@]34[C@@H]5C[C@@]6(O)[C@H](OC(=O)c7ccccc7)[C@@H]5[C@@](OC(C)=O)([C@@H]([C@H](OC)[C@H]23)[C@@H]14)[C@@H](O)[C@@H]6OC [aconitine]
- ATP [2]: 0.350

Compound: CC(C)NCC(O)c1cc(O)cc(O)c1 (stereo not drawn) [metaproterenol]
- ATP [4]: 0.018

Compound: COc1cccc(C=CC(=O)O)c1C(C)C [2-isopropyl-3-methoxycinnamic acid]
- ATP [1]: −1.528

Compound: CC(C)c1c(O)ccc2c1CC[C@H]1[C@@](C)(CO)CCC[C@]21C [19-hydroxytotarol]
- ATP [3]: 0.803

Compound: 1,2alpha-epoxydeacetoxydihydrogedunin
- ATP [1]: −0.934

Compound: COc1cc(/C=C/C(=O)O)cc(OC)c1OC [sinapic acid methyl ether]
- ATP: 0.600

Compound: CCCCN1CCCCC1C(=O)Nc1c(C)cccc1C (stereo not drawn) [bupivacaine]
- ATP (13.86 μM, composite Z-score vs DMSO): −0.329
- ATP [5]: −1.058

Compound: CC1=CC(=O)C2=C(C)CC[C@@H]3[C@H](OC(=O)[C@H]3C)[C@@H]12 [leucomisine]
- ATP (composite Z-score) (Conc 16.24 μM): −0.558

Compound: CC(C)[C@@H](C)C=C[C@@H](C)[C@H]1CC[C@H]2C3=CCC4CC(=O)CC[C@]4(C)[C@H]3CC[C@]12C (stereo partly drawn) [ergosta-7,22-dien-3-one]
- ATP [2]: 0.167

Compound: C=C1CC[C@H]2O[C@]2(C)CC[C@@H]2[C@@H]1CC2(C)C [carylophyllene oxide]
- ATP [1]: 0.604

Compound: COc1cc(-c2coc3cc(O[C@@H]4O[C@H](CO)[C@@H](O)[C@H](O)[C@H]4O)c(OC)c(O)c3c2=O)cc(O)c1OC [iridin]
- ATP [3]: 0.161

Compound: Nc1ccc(C(=O)NCC(=O)O)cc1 [aminohippuric acid]
- ATP [5]: 0.226
- ATP (20.6 μM, composite Z-score vs DMSO): 0.957

Compound: CC(C)c1nc(N(C)S(C)(=O)=O)nc(-c2ccc(F)cc2)c1/C=C/[C@@H](O)C[C@@H](O)CC(=O)O [rosuvastatin, reference compound]
- cellular ATP levels, dose response (doses ranging up to 40 μM, 48 hours, FIG. 10): little to no effect

Compound: NC(=O)c1ccc([N+](=O)[O-])cc1Cl [aklomide]
- ATP [4]: 1.316

Compound: CC(=O)OCC(=O)[C@@]1(O)CC[C@H]2[C@@H]3C[C@H](C)C4=CC(=O)C=C[C@]4(C)[C@H]3[C@@H](O)C[C@@]21C [6alpha-methylprednisolone acetate]
- ATP (composite Z-score) (Conc 20 μM): 0.169

Compound: COc1ccc2c(c1)O[C@H]1c3ccc(OC)cc3OC[C@@H]21 [homopterocarpin]
- ATP [1]: 0.381

Compound: Oc1ncnc2[nH]ncc12 [allopurinol]
- ATP [5]: 1.218

Compound: CC(C)CCC[C@@H](C)C1CC[C@H]2[C@@H]3CCC4CC(=O)CC[C@]4(C)[C@H]3CC[C@]12C (stereo partly drawn) [cholestanone]
- ATP (composite Z-score) (Conc 20 μM): 1.206

Compound: O=C(O)c1nc2cc(Cl)c(Cl)cc2nc1O
- ATP (composite Z-score) (Conc 20 μM): 0.893

Compound: CC(=O)OC1CCC2(C)C(CCC3C2CCC2(C)C3CC3OC4(CCC(C)CO4)C(C)C32)C1 (stereo not drawn) [neotigogenin acetate]
- ATP [1]: −0.797

Compound: Nc1ccc(/N=N/c2ccccc2)c(N)n1 [phenazopyridine]
- ATP (18.76 μM, composite Z-score vs DMSO): −0.676
- ATP [5]: 0.077

Compound: OCCN1CCN(CCCN2c3ccccc3Sc3ccc(Cl)cc32)CC1 [Perphenazine, reference compound]
- decrease of ATP levels (20 μM, 8 h): 11%
- decrease of ATP levels (20 μM, 24 h): 27%

Compound: Sc1nc2ccccc2s1 [2-mercaptobenzothiazole]
- ATP (composite Z-score) (Conc 20 μM): −0.408

Compound: COc1c2occc2cc2ccc(=O)oc12 [methoxy-8-psoralen]
- ATP (18.5 μM, composite Z-score vs DMSO): −0.070

Compound: CC1=CCc2c(cc3oc(C)cc(=O)c3c2O)OC1 [ptaeroxylin]
- ATP [3]: −0.704

Compound: C[C@@H]1O[C@@H](O[C@H]2[C@H](O[C@H]3CC[C@@]4(C)[C@@H](CC[C@]5(C)[C@@H]4CC=C4[C@@H]6CC(C)(C)CC[C@]6(C(=O)O[C@@H]6O[C@H](CO[C@@H]7O[C@H](CO)[C@@H](O[C@@H]8O[C@@H](C)[C@H](O)[C@@H](O)[C@H]8O)[C@H](O)[C@H]7O)[C@@H](O)[C@H](O)[C@H]6O)CC[C@]45C)[C@]3(C)CO)OC[C@H](O)[C@@H]2O)[C@H](O)[C@H](O)[C@H]1O [hederacoside C]
- ATP (composite Z-score) (Conc 20 μM): 0.362

Compound: C[C@H](N)CO [I-alaninol]
- ATP [2]: 0.737

Compound: Cc1cc(O)c2c(O)c3c(O)cccc3cc2c1 [chrysarobin]
- ATP [3]: 0.593

Reference: patent publication US20090143279A1 (priority 2007, published 2009)
